Screen size: about 150,000 compounds; about 540 (0.36%) showed an effect of 50% or more. The list shows a part of the results.

The test relates to Plasmodium falciparum. As to the kind of experiment: Primary screen in NF54 nanoGlo assay, in single point, at 2uM, 72h; a lower Z score goes with more inhibition. The class given is functional, Erythrocyte. The following applies: timepoint 72 hour.
In the case of `CN1CC[C@@]2(CCCN(C(=O)c3ccc4[nH]c(=O)n(C)c4c3)C2)C1`, the “% Inhibition” value is recorded as 4% and the Z score is on record as -0.59.

As for `CNC(=O)N1CCC([C@H]2CCN(S(=O)(=O)c3cccc(OC)c3)C2)CC1`, the “% Inhibition” value is listed as -9% and the Z score is 1.07.

Take `O=C(Cc1cccc2ccccc12)Nc1cc(-c2ccccn2)no1`: the “% Inhibition” value is recorded as -15% and the Z score was determined as 2.93.

For the compound `Cc1nc2cc(OCc3cc(C(=O)N[C@@H](C)c4cn(C)nc4C)no3)ccc2s1`, the “% Inhibition” value amounted to 8% and the Z score was -1.58.

For `CS(=O)(=O)N1CCn2nc(CNC(=O)Cc3cccc(Cl)c3)cc2C1`, the “% Inhibition” value is listed as 0% and the Z score was found to be 0.01.

For the compound `CN(C)c1c(F)cc(NC(=O)NC2C3CCOC3C2(C)C)cc1F` (centres undefined), the “% Inhibition” value came to 7% and the Z score is -1.31.

Turning to `CCCCNC[C@H](O)Cn1c(=O)sc2ccccc21`, the “% Inhibition” value is reported as -6% and the Z score was 1.17.

Turning to `O=C(Cc1csc(-c2ccccc2)n1)N1CCN(C(=O)[C@@H]2CCCO2)CC1`, the “% Inhibition” value is reported as -5% and the Z score is recorded as 0.7.

With `Cn1cccc1CN(C1CC1)S(=O)(=O)Cc1ccccc1Cl`, the “% Inhibition” value is recorded as -4% and the Z score came to 0.84.

As to `Cc1nn(C(=O)c2cc(-c3ccccc3)nc3ccccc23)c2c1[C@H]1[C@@H](C2)C1(C)C`, the “% Inhibition” value was -9% and the Z score amounted to 1.1.

Turning to `CN(C)S(=O)(=O)N[C@H]1CCN(c2nnc(-c3ccccc3)s2)C[C@@H]1O`, the “% Inhibition” value is -8% and the Z score was 1.02.

As to `Cc1ccc(OCC(=O)N(C)C2CCN(c3ccccn3)CC2)cc1`, the “% Inhibition” value was -4% and the Z score is 0.67.

Regarding `COC(=O)[C@@H]1CC[C@@H](c2ccccc2)N1`, the “% Inhibition” value is -12% and the Z score was determined as 2.23.

With `Cn1c(=O)c2cn(S(=O)(=O)c3ccccc3F)nc2n(C)c1=O`, the “% Inhibition” value is reported as -6% and the Z score is recorded as 0.69.

`Nc1nc2nc(-c3ccc(F)cc3)c(CCN3CCOCC3)cn2n1`: the “% Inhibition” value is listed as -9% and the Z score is recorded as 1.36.

For the compound `CC(C)c1noc(-c2cn([C@H]3CCCN(C(=O)c4ccsc4)C3)nn2)n1`, the “% Inhibition” value is reported as -4% and the Z score came to 0.51.

In the case of `O=C(O)[C@H]1CCN(C(=O)c2ccc(-c3ccccc3F)o2)C1`, the “% Inhibition” value is -6% and the Z score worked out at 0.71.

Take `CC(=O)N1CCCN(c2nnnn2C2CCCC2)CC1`: the “% Inhibition” value is listed as -6% and the Z score is given as 0.84.

`CN(CCO)C1CCN(C(=O)c2cscc2-c2ccccc2)CC1`: the “% Inhibition” value came out at 3% and the Z score is -0.36.

On to `CON(Cc1cnc(C)c2c1COC(C)(C)O2)CC1CCOCC1`, for which the “% Inhibition” value is on record as -1% and the Z score was 0.11.

Consider `C[C@@H]1CN(C[C@@H]2CN(C(=O)Cc3ccc(CO)cc3)C[C@@H]2CO)C[C@H](C)O1`, for which the “% Inhibition” value was 10% and the Z score was -1.36.

In the case of `O=C(CN1CCO[C@H](C(F)(F)F)C1)NCc1ccccn1`, the “% Inhibition” value came to 1% and the Z score was -0.11.

Take `Cc1cc(N2CCn3c(nc4ccccc43)C2)ccc1NC(=O)C1CCCCC1`: the “% Inhibition” value was 35% and the Z score was -1.84.

For the compound `O=C1CN(CCC2=CCCCC2)[C@H]2CS(=O)(=O)C[C@H]2N1c1ccc(Cl)cc1`, the “% Inhibition” value is given as -3% and the Z score came to 0.33.

For `O=C(CN1CCCCCC1)Nc1nncs1`, the “% Inhibition” value was -2% and the Z score came to 0.24.

In the case of `O=C(Nc1ccccc1C(=O)n1cnc2ccccc21)c1ncn[nH]1`, the “% Inhibition” value is reported as 3% and the Z score is listed as -0.44.

In the case of `Cc1cccn2c(NC(=O)c3cc(N4CCOCC4)ncn3)c(-c3ccc(F)cc3)nc12`, the “% Inhibition” value is on record as 4% and the Z score was -0.52.

As for `O[C@H]1Cc2ccccc2C12CCN(Cc1cc(F)cc(F)c1)CC2`, the “% Inhibition” value was -6% and the Z score is 1.14.

As to `CN(C(=O)Cc1nnc2cc(-c3nc(C4CC4)no3)ccn12)C1CCCCC1`, the “% Inhibition” value is -8% and the Z score was 1.18.

In the case of `Cn1nccc1[C@@H](O)CNC(=O)C1(c2cccnc2)CC2(CCC2)C1`, the “% Inhibition” value is on record as -8% and the Z score is recorded as 1.59.

In the case of `O=S(=O)(CCN(C1CCCCC1)S(=O)(=O)c1ccc(Br)cc1)N1CCNCC1`, the “% Inhibition” value is on record as -4% and the Z score is recorded as 0.62.

Take `CN1CCN(C(=O)c2cc(-c3ccccc3)on2)[C@H]2CS(=O)(=O)C[C@H]21`: the “% Inhibition” value is reported as -9% and the Z score is 1.28.

Turning to `Oc1ccccc1N1CCN([C@H]2CCCc3ccccc32)CC1`, the “% Inhibition” value is -6% and the Z score is 0.61.

Regarding `COc1ccccc1-n1c(=O)n(CC(=O)Nc2ccccc2C(F)(F)F)c(=O)c2c(C)cc(C)nc21`, the “% Inhibition” value is listed as 1% and the Z score is reported as -0.17.

For the compound `CCN(CC)c1nc2ncn(CC(=O)NCc3ccc4c(c3)OCO4)c(=O)c2s1`, the “% Inhibition” value is -2% and the Z score worked out at 0.24.

On to `CC(C)(C)c1nnc(CN2CCC[C@H]2c2cccs2)o1`, for which the “% Inhibition” value was -10% and the Z score was found to be 0.86.

As to `Cc1ccc(OCc2c(C(=O)N(C)Cc3ccccc3)c(=O)cc(C)n2CCN2CCOCC2)cc1`, the “% Inhibition” value is -3% and the Z score was determined as 0.45.

On to `O=C1CN(c2ccnc(C(=O)N3CCOCC(F)(F)C3)c2)CCN1`, for which the “% Inhibition” value is reported as 0% and the Z score was 0.03.

For the compound `CC(C)n1cc(C(=O)N2CC[C@@]3(CCCN(CCC4CCCCC4)C3)C2)cn1`, the “% Inhibition” value was -5% and the Z score was 0.75.

Take `COCCCN(Cc1c(-c2ccccc2)noc1N1CCCC[C@@H]1C)C(=O)Cc1ccccc1`: the “% Inhibition” value is on record as -10% and the Z score worked out at 0.89.

`Cc1ccc(C(=O)N2CCN(c3oc(C4CC4)nc3C#N)CC2)c(C)n1`: the “% Inhibition” value worked out at 5% and the Z score is -0.99.

With `COC(=O)c1ccc(NC(=O)C2CN(C(C)=O)C2)cc1`, the “% Inhibition” value is -1% and the Z score is given as 0.12.

One may read the % Inhibition as the relative decrease from the control value, in per cent.
